Data from PubChem BioAssay AID1794842 (National Center for Advancing Translational Sciences (NCATS), 2023).
The campaign covered roughly 2,800 compounds. Fewer than 10 were called active. The call rests on the fitted dose curve; in most records, active means well fitted curve in the direction sought with a large enough effect; inconclusive means small, poorly fitted or top-dose-only effect, or another doubt; inactive means no such curve, though single readings can be large or run the other way. The list shows a part of the results.

The compounds below were run against Metallo-beta-lactamase type 2 (Klebsiella pneumoniae) (UniProt C7C422) (assay: qHTS to identify inhibitors of the New Delhi Metallo-beta-lactamase (NDM): Meropenem screen against the machine-based learning selections.). Settings: Purified NDM-1, meropenem hydrolysis, absorbance 300 nm; at 38.4 µM (top of the series) unless noted.
Source text: Assay Submitter (PI): James Inglese Ph.D., Patricia Dranchak Ph.D., Mahesh Aitha Ph.D. Assay Development and Screening Technology Laboratory (ADST) National Center for Advancing Translational Sciences (NCATS), Rockville, MD National Institute of Health (NIH), Bethesda, Maryland The metallo-beta-lactamases (MBL) are a main antibiotic resistance mechanism evolved by bacteria. There is an urgent clinical need for MBL inhibitors to mitigate this growing threat. To support a machine-based learning study, qHTS has been used to experimentally test inhibitors identified by prediction tools.
PROTOCOL TABLE (as described by Inglese et al., 2007) SEQUENCE No. (e.g., 1, 2, 3, etc.); […] (e.g., enzyme, Incubation, Reagent, etc.); VALUE; DESCRIPTION Primary Screen 1; NDM-1; 4 uL of 3 nM enzyme [2 nM final] in 50 mM HEPES (pH 7.0), 1 uM […], 0.01% Tween20; Use BioRaptr to dispense into two sets of Aurora black, clear bottom high base 1536-well plates 2; Compounds; 23 nL; Use Pin Tool (Wako) to transfer DMSO control and library compounds in DMSO 3; Incubate; >30 min 4a; Reagent; 2 uL of 50 uM nitrocefin [16.7 uM final] to one set of assay plates 4b; Reagent; 2 uL of 150 uM meropenem [50 uM final] to second set of assay plates 5a; Incubate; 15 min 5b; Incubate; 30 min 6a; Detector; Absorbance at 485 nm (bandwidth = 5 nm, 25 flashes/well) on Tecan Infinity 6b; Detector; Absorbance at 300 nm (bandwidth = 5 nm, 25 flashes/well) on Tecan Infinity NOTES (numbers refer to sequence above) 1; Column 1 of each plate received assay buffer without enzyme and columns 2-48 received enzyme for a final assay concentration of 2 nM. 2; Control plate contained DMSO in columns 1, 2, 3, and 4. 3; Compound interaction with enzyme. 4; Nitrocefin and meropenem substrates were prepared in the same assay buffer as step 1 for a final assay concentration of 16.7 uM and 50 uM, respectively, and added to all wells across respective sets of assay plates. 5; Default reader settings were applied for absorbance read at 485 nm (nitrocefin) or 300 nm (meropenem), bandwidth = 5 nm, 25 flashes/well. References: Inglese J, Shamu CE, Guy RK. 2007. Reporting data from high-throughput screening of small-molecule libraries. Nat Chem Biol. doi:10.1038/nchembio0807-438 Yasgar A, Shinn P, Jadhav A, Auld D, Michael S, Zheng W, Austin CP, Inglese J, Simeonov A. 2008. Compound Management for Quantitative High-Throughput Screening. J Lab Autom 13:79 - 89. doi:10.1016/j.jala.2007.12.004
Further: % of control where 0% means no effect.

UniProt C7C422, sequence (C7C422 whole entry, looked up): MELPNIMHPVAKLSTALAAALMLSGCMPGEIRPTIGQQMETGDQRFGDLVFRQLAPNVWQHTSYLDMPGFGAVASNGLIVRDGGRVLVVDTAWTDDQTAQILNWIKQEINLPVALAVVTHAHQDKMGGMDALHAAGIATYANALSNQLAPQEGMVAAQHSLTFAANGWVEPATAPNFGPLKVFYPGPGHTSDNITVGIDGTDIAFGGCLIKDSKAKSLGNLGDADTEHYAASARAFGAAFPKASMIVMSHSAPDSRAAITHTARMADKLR

Activity change, negative = inhibition, inactive:
Cc1nc(N2CCCCC2)ncc1C(=O)NC1CCOC2(CCOCC2)C1 (stereo unspecified) -3.14%
CN1C[C@H](C(=O)Nc2ccccc2)C[C@H]1c1cccc(C(F)(F)F)c1 -1.89% [at 57.5 µM]
Cc1ccc(-c2nc(CNC(=O)C3(N)CCC3)[nH]c2-c2ccccn2)cc1 57.8%
O=C(NC[C@H]1OC[C@@H](N(Cc2ccccc2F)Cc2ccccc2F)[C@@H]1O)c1ccccc1 -0.556%
CNC(=O)[C@@H]1C[C@H](n2cc(CNC(=O)Nc3ccc(C)c(Cl)c3)nn2)CN1 33.6%
O=C(Cc1c[nH]c2ncc(-c3cccnc3)cc12)Nc1ccc(C(F)(F)F)cc1 8.26% [at 57.5 µM]
O=C(NCCc1ccccn1)c1ccnc(-c2nnc3ccc(Nc4ccccc4)nn23)c1 -0.362% [at 57.5 µM]
COC(=O)[C@H](NC(=O)[C@@H]1C[C@@H](NC(=O)Nc2cccc(F)c2)CCN1C(=O)CCC(=O)O)C(C)C -2.12%
COc1ccc(CNC(=O)[C@H]2O[C@H](CCN3CCN(c4ccccc4OC)CC3)CC[C@@H]2O)cc1 -0.324%
OCCC1CCN(c2ccc(-c3nc(CCCc4ccccc4)no3)cn2)CC1 -0.77%
CC(C)NC(=O)N1CCC(O)(c2csc(CN3CC[C@@H](O)C3)n2)CC1 0.317% [at 57.5 µM]
CC(C)N1CCOC[C@H]1c1ncc(-c2ccc(F)cc2)[nH]1 -0.961% [at 76.7 µM]
COC(=O)CO[C@@H]1CO[C@H]2[C@@H]1OC[C@@H]2NC(=O)Nc1cccc(C(F)(F)F)c1 -0.0488% [at 57.5 µM]
O=c1c2nc(NCc3ccccc3)ccc2ncn1Cc1ccccn1 18.9% [at 57.5 µM]
Fc1ccc(-c2noc([C@@H]3Cc4nc[nH]c4CN3Cc3ccccc3)n2)cc1Cl 63.6% [at 57.5 µM]
CCO[C@H]1C[C@@H](O)C12CCN(C(=O)c1cc(S(N)(=O)=O)ccc1F)CC2 -0.14%
Cc1ccc(N2CCN(C(=O)C3CCCN(c4cnc5nccnc5c4)C3)CC2)cc1 (stereo unspecified) 4.5%
Cc1ccc(C2(O)CCN(C(=O)c3cccc(-c4ncc[nH]4)c3)CC2)nc1 0.432%
Cc1ccccc1Oc1ncccc1CNC(=O)CCn1cnnc1 0.535%
Cc1cc(CNC(=O)c2cc(-c3ccco3)nc3c(Cl)cccc23)no1 10.2%
Cc1cnccc1N1CCCN(C(=O)c2cccc(C3CCCNC3)c2)CC1 (stereo unspecified) -1.96%
CC(C)NC(=O)CN1CCN(c2nccc(N3CCC(O)CC3)n2)CC1 -0.548%
COc1ccc(C(=O)N2CCCC(c3nccn3CC3CCC3)C2)c(OC)n1 (stereo unspecified) 3.65%
Cc1cc(C)n(-c2ccc(NC(=O)C3CCN(Cc4nnc(C)o4)CC3)cc2)n1 -0.843%
CC(=O)NC(CO)C(=O)N1CCC(O)(c2ccc(C)cn2)CC1 (stereo unspecified) 3.38%
CC(=O)NC1(C)CCN(Cc2ccc(-c3cccc4ncccc34)cc2)C1 (stereo unspecified) 22.3% [at 57.5 µM]
CC(C)CN=C1S[C@H]2[C@H]([C@@H](O)[C@H](O)C[C@@H]2C(N)=O)N1Cc1ccc(F)cc1 1.98% [at 57.5 µM]
O=C(CC[C@@H]1CNC(=O)[C@@H]2C[C@H](NC(=O)Nc3cccc(Cl)c3)CN12)NCc1cccnc1 1.11%
COCc1cc(C[C@@H]2C[C@H](NC3CCN(C(C)=O)CC3)C2(C)C)no1 2.28% [at 57.5 µM]
CC(C)C[C@@H](NC(=O)C1=C[C@@H](NC(=O)CC(C)(C)C)[C@@H](O)[C@H](O)C1)C(N)=O -0.512% [at 57.5 µM]
O=C(O)C1(Oc2ccc3ccccc3c2)CCN(Cc2ccsc2)CC1 -0.232%
Cc1nc2cc(N3CCCC(C(=O)NCCN4CCCCCC4)C3)cnc2nc1C (stereo unspecified) 0.257%
COC(=O)CCNC(=O)C1c2ccccc2C(=O)N(Cc2ccco2)C12CCCCC2 (stereo unspecified) 0.9%
CCCN[C@H]1C[C@@H](Cc2cc(COc3ccccc3)on2)C1(C)C -1.41% [at 57.5 µM]
Cc1ccc(-c2nc(CNC(=O)[C@@H]3C[C@@H](O)CN3)[nH]c2-c2ccccn2)cc1 63%
CC(=O)Nc1ccc(CN2CCC3(CC2)CN[S+](=O)([O-])c2ccccc2N3)cc1 -0.407%
COc1ccc(CNC(=O)C[C@@H]2O[C@H](CNCc3cccc(Cl)c3)[C@@H](O)[C@H]2O)cc1 20.3% [at 57.5 µM]
C[C@@H](NC(=O)Nc1ccccc1)c1onc(-c2ccc(Cl)cc2)c1C(=O)O -0.362% [at 57.5 µM]
O=C(c1ccccc1OCC1CCCN(C(=O)c2n[nH]c3ccccc23)C1)N1CCOCC1 (stereo unspecified) 4.89%
CC(C)c1nc(C2Cc3ccccc3N2C(=O)NCc2ccco2)no1 (stereo unspecified) 10%
O=C(NCCc1csc(-c2ncccn2)n1)C1NCCc2[nH]cnc21 (stereo unspecified) 2.36%
Cc1noc2c(NC3CCC(O)CC3)cc(-c3ccc(F)cc3)nc12 (stereo unspecified) 11.6% [at 57.5 µM]
Cc1ccc(NC(=O)N2Cc3[nH]cnc3C[C@H]2c2nc(-c3ccc(Cl)cc3)no2)cc1 19.6% [at 57.5 µM]
c1ccc(CCN2CCNc3cc(Nc4ccc(N5CCOCC5)cc4)ncc3C2)cc1 6.63% [at 57.5 µM]
OCc1cccc(-c2ccc3ncc(Nc4cccc(F)c4)n3n2)c1 35.3% [at 57.5 µM]
COc1ccc(F)c(CN2CCCC(O)(CN(C)Cc3cc(C)on3)C2=O)c1 (stereo unspecified) 11.8%
C[C@@]1(O)CCN(C(=O)c2cc(C(F)(F)F)ccc2Cl)C[C@@H]1O 1.63%
CN(Cc1ccccc1)Cc1cc(C(=O)N(C)Cc2ccsc2)no1 -0.646%
COc1ccccc1C(O)c1nc(Nc2ccc(C(C)C)cc2)n[nH]1 (stereo unspecified) -1.07% [at 57.5 µM]
COC[C@H]1CCCN1Cc1nc(C2(O)CCN(C)CC2)cs1 1.03% [at 57.5 µM]
Cc1ccccc1-c1cnc2[nH]cc(CC(=O)Nc3cccnc3)c2c1 7.62% [at 57.5 µM]
Cc1n[nH]c(C)c1CN1C[C@@H](CO)[C@H](NC(=O)c2ccccc2)C1 0.992%
CC(=O)N1CCC(N2C[C@@H]3OCC(=O)N[C@@H]3C2)CC1 1.4% [at 76.7 µM]
O=C1CN(C(=O)[C@H]2CN(Cc3ccccc3)C[C@H]2C(=O)O)CCN1 50.1%
O=C(NCC1CCOCC1)c1cnc2n[nH]c(-c3ccccc3)c2n1 4.55% [at 57.5 µM]
COC(=O)[C@H](NC(=O)[C@@H]1C[C@@H](NC(=O)c2ccncc2)CCN1S(=O)(=O)c1ccc(OC)cc1)C(C)C -0.0853%
O[C@@H]1C[C@@H](c2nc(-c3cnccn3)no2)N(Cc2ccc(F)cc2)C1 -0.302% [at 57.5 µM]
Clc1cccc(-c2cnc([C@@H]3COCCN3Cc3cnc[nH]3)[nH]2)c1 98.2% [at 57.5 µM]
Cc1nc2c(c(-c3ccc(O)cc3)n1)CN(C(=O)C1CC1)CCC2 0.42% [at 57.5 µM]
COC(=O)c1cccc(C(=O)N[C@H]2CO[C@H]3[C@@H]2OC[C@H]3OC(=O)Nc2cccc(C(F)(F)F)c2)c1 -0.473%
CCN(C)S(=O)(=O)NCC1CCN(c2cnn(C)c(=O)c2)C1 (stereo unspecified) 3.1%
O=C(NCc1cc2n(n1)CCN(C1CCCCC1)C2)c1cnn2ccccc12 0.117%
COc1ccc(NC(=O)c2nc(C(O)c3cccc(O)c3)oc2C)cn1 (stereo unspecified) 6.58% [at 57.5 µM]
O=C(NC[C@H]1O[C@@H](CO)[C@@H](O)[C@H]1N1CCN(c2ccc(F)cc2)CC1)c1ccccc1 49.5%
CCN(Cc1cnn(CC)c1)C(=O)C1COc2ccccc2C1 (stereo unspecified) -0.808%
COc1ccc(C(=O)N[C@H]2CO[C@H]3[C@@H]2OC[C@@H]3n2nnnc2-c2ccc3c(c2)OCO3)cc1 2.13%
COc1cc(C)c2c(c1C)C[C@H](C(C)C(=O)N1CCSCC1)CC2 (stereo partly specified) -0.792% [at 57.5 µM]
CC1(c2ccccc2)CCCN(C(=O)c2cc(-c3ccncc3)n[nH]2)C1 (stereo unspecified) 0.839%
c1cncc(-c2ccnc(NCCCn3nccc3C3CC3)n2)c1 -0.339%
CC(=O)N1CCN(C(=O)C2CCNCC2)C[C@@H]1C(=O)N[C@@H](CC1CCCCC1)C(N)=O -2.13%
CC1(CNc2ccccc2)COc2ccc(C(=O)NCCc3ccccn3)cc2N1 (stereo unspecified) 29% [at 57.5 µM]
NC(=O)c1nc(CNC(=O)[C@H]2CCC[C@H](O)C2)no1 -0.953%
COc1ccccc1CNC[C@H]1O[C@@H]2C[C@@H](CC(=O)NCc3nccn3C)O[C@@H]2[C@@H]1O -0.0538% [at 57.5 µM]
COc1ccc(OC)c(S(=O)(=O)N2CCCC(Cn3c(C)nc4cccnc43)C2)c1 (stereo unspecified) 0.467%
O=C1Nc2ccc(-c3ccc(Cl)cc3)cc2C(=O)N2CC[C@H](NC(=O)N3CCOCC3)[C@@H]12 3.16%
COCCCNC(=O)CCC[C@@H]1[C@H]2CCCN3CCC[C@@H](CN1C(=O)c1ccccc1)[C@@H]23 0.47%
